Test results taken from PubChem BioAssay AID624417 (National Center for Advancing Translational Sciences (NCATS), 2012).
Out of some 410,000 compounds screened, about 6,400 (1.6%) were called active. Inconclusive means that the source gave no clear call. Such entries were picked first, then a sample of the others. The call rests on the fitted dose curve; in most records, active means well fitted inhibition curve with a large enough effect; inconclusive means small, poorly fitted or top-dose-only effect; inactive means no such curve, though single readings can be large or run the other way. Potencies of inconclusive entries are left out as doubtful fits.
Further: nearly all actives have a fitted effect of over 55% in size.
On the % scale 0 is the no-effect control and ±100 the full control effect; potency means the concentration at half of the fitted maximal effect; tags describe the fitted curve by direction and shape.

These compounds were tested against Glucagon-like peptide 1 receptor (Homo sapiens) (UniProt P43220) (assay: qHTS of GLP-1 Receptor Inverse Agonists (Inhibition Mode)). Conditions: HEK293 GLP-1R CRE-luciferase, luminescence, 24 h, GLP-1R form is constitutively active; activity change, negative = inhibition: at 38.3 µM (top of the series) unless noted.
UniProt P43220, sequence (P43220 whole entry, looked up): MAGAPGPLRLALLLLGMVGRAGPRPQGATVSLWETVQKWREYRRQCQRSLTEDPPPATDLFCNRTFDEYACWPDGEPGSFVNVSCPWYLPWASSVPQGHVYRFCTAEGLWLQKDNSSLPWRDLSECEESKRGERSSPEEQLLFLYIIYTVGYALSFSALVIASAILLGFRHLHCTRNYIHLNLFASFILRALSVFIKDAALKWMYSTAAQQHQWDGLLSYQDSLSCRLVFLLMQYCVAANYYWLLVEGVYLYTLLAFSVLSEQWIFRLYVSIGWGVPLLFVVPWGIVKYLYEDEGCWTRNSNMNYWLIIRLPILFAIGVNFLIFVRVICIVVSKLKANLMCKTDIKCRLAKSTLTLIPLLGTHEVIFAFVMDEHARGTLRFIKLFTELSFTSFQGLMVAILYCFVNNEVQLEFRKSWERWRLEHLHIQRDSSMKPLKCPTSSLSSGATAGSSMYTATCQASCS
Method in brief: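 Luminescence readout: a drop in cAMP-driven luciferase signal flags inverse agonism at a constitutively active GLP-1R stably expressed in HEK293. Compound exposure lasted 24 hr at 37 deg C, 5% CO2.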
With `COc1ccc(CN(C)CCCn2cnc3c(OCc4ccccc4)ncnc32)cc1` the Potency was inconclusive [inhibitor, single point].
With `Oc1ccc(-n2nnnc2SCc2ccccc2Br)cc1` the Potency was inconclusive [inhibitor, single point].
For `Cc1ccc(C(O)P(=O)(OCc2ccccc2)c2ccc(N(C)C)cc2)cc1` (stereo not drawn), the Potency was inconclusive [inhibitor, single point].
With `Cc1ccc(NC(=O)CN(C)C(=O)Cc2coc3cc(C)c(C)cc23)cc1` the Potency was inconclusive [inhibitor, partial curve, poor fit].
`O=C(COc1ccc2c(c1)CCC2)NCc1cccc(Cl)c1` was tested, and the Potency was inconclusive [inhibitor, partial curve, poor fit].
`COc1ccc(CCNC(=O)CN2CCN(c3ccccc3Cl)CC2)cc1` was tested, and the Potency was inconclusive [inhibitor, full curve, poor fit].
`O=C1NN(c2ccc(Cl)c(Cl)c2)C(=O)/C1=C/c1ccc(-c2ccccc2C(=O)O)o1` was tested, and the Potency was inconclusive [inhibitor, partial curve, poor fit].
For `N#C/C(=N/Nc1ccccc1[N+](=O)[O-])C(N)=S`, the Potency was inconclusive [inhibitor, full curve, poor fit].
In the case of `c1ccc(-c2nc(-n3nc4ccccc4n3)nc3ccccc23)cc1`, the Potency is reported as inconclusive [inhibitor, partial curve, poor fit].
For `COc1ccc(CN(C(=O)c2cccs2)c2ccccc2)cc1`, the Potency was inconclusive [inhibitor, single point].
For `COc1ccc(NC(=O)c2c(NCc3ccc(C)o3)sc3c2CCC(C)C3)cc1` (stereo not drawn), the Potency was inconclusive [inhibitor, single point].
For `CCOC(=O)N1CCc2c(sc3c2c(=O)n(Cc2ccccc2)c(=O)n3Cc2cccc(Cl)c2)C1`, the Potency was “inactive”.
In the case of `CN(C)c1ccc(CNc2ncc(Br)cc2Br)cc1`, the Potency is reported as inconclusive [inhibitor, single point].
`Cc1ccc(S(=O)(=O)c2cn(C)c3cc(N4CCN(c5ccccc5)CC4)c(F)cc3c2=O)cc1` was tested, and the Potency was “inactive”.
For `NS(=O)(=O)c1ccc(CNC(=O)c2cc(-c3ccccn3)nc3ccc(Cl)cc23)cc1`, the activity change, negative = inhibition was inactive: -15.5% [at 7.66 µM].
`Cc1cc(Oc2ccc3ccccc3c2)nc(SCC(=O)c2ccccc2)n1` was tested, and the Potency was inconclusive [inhibitor, single point].
`Cc1c(C(=O)N/N=C/C(C)C)[nH]c2c([N+](=O)[O-])cccc12` was tested, and the Potency was inconclusive [inhibitor, partial curve, poor fit].
For `Cc1nn(-c2ccccc2)c2nc(N)c(C#N)c(-c3ccc(O)c(O)c3)c12`, the Potency was inconclusive [inhibitor, single point].
For `Cc1ccccc1-n1c(C)nnc1SCC(=O)NC1CCCc2ccccc21` (stereo not drawn), the Potency was “inactive”.
With `COc1ccc(CNC(=O)c2oc3c(c2C)-c2nn(Cc4ccccc4Cl)cc2CC3)cc1` the Potency was inconclusive [inhibitor, partial curve, poor fit].
`CCOc1ccc(C(=O)Nc2ccc(Cc3ccncc3)cc2)cc1Br` was tested, and the Potency was inconclusive [inhibitor, single point].
`COC(=O)c1ccc(NC(=S)NN2CCCCC2c2cccnc2)cc1` (stereo not drawn) was tested, and the Potency was inconclusive [inhibitor, partial curve].
In the case of `Cc1ccc(/C=N/NC(=O)c2cccc(S(=O)(=O)Nc3ccccc3Cl)c2)s1`, the Potency is reported as inconclusive [inhibitor, single point].
In the case of `O=C(CNS(=O)(=O)c1ccc(Cl)c(C(F)(F)F)c1)NC1CCCCC1`, the Potency is reported as inconclusive [inhibitor, single point].
With `CNC(=S)N/N=C/c1cc(C)ccc1C` the Potency was inconclusive [inhibitor, partial curve, poor fit].
With `CS(=O)(=O)Nc1ccc(C(=O)Nc2cccc([N+](=O)[O-])c2)cc1` the Potency was inconclusive [inhibitor, single point].
For `CCC(C)n1c(SCC(=O)NC2CCCC2)nc2ccccc2c1=O` (stereo not drawn), the Potency was inconclusive [inhibitor, single point].
In the case of `CN(Cc1ccc(F)cc1)C(=O)COc1ccc2ccccc2c1`, the Potency is reported as inconclusive [inhibitor, single point].
In the case of `CCN(CC)c1ccc(/C=N/Nc2ccc(C)cc2)c(O)c1`, the Potency is reported as inconclusive [inhibitor, single point].
For `COc1ccc(NC(=O)c2c(NC(=O)COc3ccc(Cl)cc3)sc3c2CCCCC3)cc1`, the Potency was “inactive”.
With `COc1ccc(C)cc1S(=O)(=O)N1c2ccc(C)cc2C2CN(C)CCC21` (stereo not drawn) the Potency was inconclusive [inhibitor, single point].
For `CCc1cccc(CC)c1-n1c(SCC(=O)N2CCc3ccccc32)nc(O)cc1=O`, the Potency was inconclusive [inhibitor, partial curve, poor fit].
With `CSCCC1NC(=O)N(CC(=O)N2N=C(c3ccc(Cl)cc3)CC2c2ccco2)C1=O` (stereo not drawn) the Potency was inconclusive [inhibitor, partial curve].
With `CCN(CC)CCOC(=O)c1ccc(NC(=O)c2nn(-c3ccc(C)cc3)c(=O)c3c2c2ccccc2n3C)cc1` the Potency was “inactive”.
With `CNC(=S)NNC(=O)c1cccn(Cc2ccc(Cl)c(Cl)c2)c1=O` the Potency was “inactive”.
With `O=C(NCC1(c2ccccc2)CCCC1)C1(c2ccccc2)CCCC1` the Potency was inconclusive [inhibitor, full curve, poor fit].
In the case of `Cc1ccnc(NC(=O)c2cccc(S(=O)(=O)NCc3ccccc3)c2)c1`, the Potency is reported as inconclusive [inhibitor, partial curve, poor fit].
`CCCCC(=O)Nc1cccc(-c2csc(-c3ccccc3)n2)c1` was tested, and the Potency was inconclusive [inhibitor, partial curve, poor fit].
For `Cc1cc(C)cc(-n2c(SC(C)C(=O)NCc3ccc4c(c3)OCO4)nc3ccccc3c2=O)c1` (stereo not drawn), the Potency was inconclusive [inhibitor, partial curve, poor fit].
In the case of `O=C(NCCCN1CCN(c2ccc(F)cc2)CC1)c1cc2c(s1)-c1ccccc1OC2`, the Potency is reported as inconclusive [inhibitor, single point].
`CC(C)N(Cc1ccccc1)S(=O)(=O)c1ccc(Cl)nc1` was tested, and the Potency was inconclusive [inhibitor, partial curve].
In the case of `COc1ccc2oc(C(=O)OCC(=O)N3CCCCC3C)c(C)c2c1` (stereo not drawn), the Potency is reported as inconclusive [inhibitor, single point].
`Cc1ccc(C(=O)CC2(O)C(=O)N(Cc3ccccc3Cl)c3ccccc32)o1` (stereo not drawn) was tested, and the Potency was inconclusive [inhibitor, partial curve].
For `O=C(NNc1c(Cl)cccc1Cl)c1sccc1Cl`, the Potency was inconclusive [inhibitor, partial curve, poor fit].
In the case of `C=C(C)COc1ccc(-c2[nH]ncc2Oc2ccccc2OC)c(O)c1`, the Potency is reported as “inactive”.
With `CC(=O)Oc1ccccc1Cn1c(C)c(C(=O)NCc2cccc(Cl)c2)sc1=O` the Potency was inconclusive [inhibitor, partial curve, poor fit].
With `CCCCc1ccc(NC(=S)N2CCCC(CO)C2)cc1` (stereo not drawn) the Potency was inconclusive [inhibitor, partial curve, poor fit].
`O=C(N/N=C/c1ccccc1OCc1ccccc1)c1cccnc1` was tested, and the Potency was inconclusive [inhibitor, single point].
For `CCOc1ccccc1C(=O)N(Cc1ccc(N(C)C)cc1)Cc1ccco1`, the Potency was inconclusive [inhibitor, single point].
With `CC1(C)Oc2ccc3ccc(=O)oc3c2/C(=C/NC2CCCCC2)C1=O` the Potency was inconclusive [inhibitor, partial curve, poor fit].
In the case of `C=C1CCN([C@@H](CC(C)C)C(=O)NCc2ccc(Cl)cc2)S(=O)(=O)c2ccccc21`, the Potency is reported as inconclusive [inhibitor, single point].
In the case of `Cn1ccc2cc(S(=O)(=O)N3CCCN(C(=O)Nc4ccc(Br)cc4)CC3)ccc21`, the Potency is reported as inconclusive [inhibitor, single point].
In the case of `COC(=O)CSC1=C(C#N)C(c2ccc(C)o2)CC(=O)N1` (stereo not drawn), the Potency is reported as inconclusive [inhibitor, full curve, poor fit].
For `Cc1ccc(C)c(S(=O)(=O)N2CCN(c3nc(-c4cccnc4)nc4ccccc34)CC2)c1`, the Potency was inconclusive [inhibitor, single point].
With `Clc1ccc2nc(-c3ccc4c(c3)OCO4)cn2c1` the Potency was inconclusive [inhibitor, full curve, poor fit].
For `CCC(NC(=O)CN1CCN(C(=O)c2cccs2)CC1)c1ccc(C)cc1` (stereo not drawn), the Potency was “inactive”.
In the case of `Cc1ccc(Nc2c(-c3ccc(N(C)C)cc3)nc3ccccn23)cc1`, the Potency is reported as “inactive”.
In the case of `Cc1c(Cl)cccc1Nc1nc(N)nc(CN2CCc3ccccc3C2)n1`, the Potency is reported as inconclusive [inhibitor, single point].
For `COc1ccc(-c2[nH]c(-c3ccc(OC)c(OC)c3)nc2SCC(=O)Nc2ccccc2)cc1`, the Potency was “inactive”.
With `COc1ccc(C(=O)Nn2c(SCc3cccc([N+](=O)[O-])c3)nc3ccccc3c2=O)cc1` the Potency was active: 5.62 µM.
For `COc1ccc(Cl)cc1NC(=O)CN(C)C(=O)c1cn(-c2ccccc2)nc1-c1cccs1`, the Potency was “inactive”.
In the case of `S=C(Nc1ccccc1Cl)NC1CCCCCC1`, the Potency is reported as inconclusive [inhibitor, single point].
In the case of `COc1ccc(/C=C/c2nc3ccccc3n2Cc2ccccc2OC)cc1`, the Potency is reported as inconclusive [inhibitor, single point].
